Test results: article PMC9911399, “Two distinct binding modes provide the RNA-binding protein RbFox with extraordinary sequence specificity”
Where a chain is given by its changes, count along the chain named. This is one part of the list.

B1: CUCUGAA (DNA:RNA)
RNA: GGGAGACCGGAAUUCAGAUUGUCCCUCUGAAUUAAAUCCCGUCGUAGCCACCA
DNA 1: CAATCTGAATTCCGGTCTCCC
DNA 2: TGGTGGCTACGACGGGATT
B2: AUUGGUC (DNA:RNA)
RNA: B1 RNA with C25A, C27U, U28G, A30U, A31C
DNA 1: CAATCTGAATTCCGGTCTCCC
DNA 2: TGGTGGCTACGACGGGATT
B3: UACCGUG (DNA:RNA)
RNA: B1 RNA with C25U, U26A, U28C, A30U, A31G
DNA 1: CAATCTGAATTCCGGTCTCCC
DNA 2: TGGTGGCTACGACGGGATT
B4: ACUGCUU (DNA:RNA)
RNA: GGGAGACCGGAAUUCAGAUUGUCCACUGCUUUUAAAUCCCGUCGUAGCCACCA
DNA 1: CAATCTGAATTCCGGTCTCCC
DNA 2: TGGTGGCTACGACGGGATT
B5: ACAGUAC (DNA:RNA)
RNA: B4 RNA with U27A, C29U, U30A, U31C
DNA 1: CAATCTGAATTCCGGTCTCCC
DNA 2: TGGTGGCTACGACGGGATT
B6: CUUUUAA (DNA:RNA)
RNA: B1 RNA with C27U, G29U
DNA 1: CAATCTGAATTCCGGTCTCCC
DNA 2: TGGTGGCTACGACGGGATT
B7: GUUCUUG (DNA:RNA)
RNA: B4 RNA with A25G, C26U, G28C, C29U, U31G
DNA 1: CAATCTGAATTCCGGTCTCCC
DNA 2: TGGTGGCTACGACGGGATT
B8: UGUACAG (DNA:RNA)
RNA: B4 RNA with A25U, C26G, G28A, U30A, U31G
DNA 1: CAATCTGAATTCCGGTCTCCC
DNA 2: TGGTGGCTACGACGGGATT
B9: UAUCGAG (DNA:RNA)
RNA: B1 RNA with C25U, U26A, C27U, U28C, A31G
DNA 1: CAATCTGAATTCCGGTCTCCC
DNA 2: TGGTGGCTACGACGGGATT
B10: AUAAUAG (DNA:RNA)
RNA: B1 RNA with C25A, C27A, U28A, G29U, A31G
DNA 1: CAATCTGAATTCCGGTCTCCC
DNA 2: TGGTGGCTACGACGGGATT
B11: AGUGCCA (DNA:RNA)
RNA: B4 RNA with C26G, U30C, U31A
DNA 1: CAATCTGAATTCCGGTCTCCC
DNA 2: TGGTGGCTACGACGGGATT
B12: CCCGAAU (DNA:RNA)
RNA: B4 RNA with A25C, U27C, C29A, U30A
DNA 1: CAATCTGAATTCCGGTCTCCC
DNA 2: TGGTGGCTACGACGGGATT
B13: UGUUUUU (DNA:RNA)
RNA: B4 RNA with A25U, C26G, G28U, C29U
DNA 1: CAATCTGAATTCCGGTCTCCC
DNA 2: TGGTGGCTACGACGGGATT
B14: GACCCGU (DNA:RNA)
RNA: B4 RNA with A25G, C26A, U27C, G28C, U30G
DNA 1: CAATCTGAATTCCGGTCTCCC
DNA 2: TGGTGGCTACGACGGGATT
B15: GUCCCAA (DNA:RNA)
RNA: B1 RNA with C25G, U28C, G29C
DNA 1: CAATCTGAATTCCGGTCTCCC
DNA 2: TGGTGGCTACGACGGGATT
B16: AGCUCGA (DNA:RNA)
RNA: B1 RNA with C25A, U26G, G29C, A30G
DNA 1: CAATCTGAATTCCGGTCTCCC
DNA 2: TGGTGGCTACGACGGGATT
B17: UUGUUUG (DNA:RNA)
RNA: B1 RNA with C25U, C27G, G29U, A30U, A31G
DNA 1: CAATCTGAATTCCGGTCTCCC
DNA 2: TGGTGGCTACGACGGGATT
B18: CCCUAUC (DNA:RNA)
RNA: B1 RNA with U26C, G29A, A30U, A31C
DNA 1: CAATCTGAATTCCGGTCTCCC
DNA 2: TGGTGGCTACGACGGGATT
B19: UUCCCCA (DNA:RNA)
RNA: B1 RNA with C25U, U28C, G29C, A30C
DNA 1: CAATCTGAATTCCGGTCTCCC
DNA 2: TGGTGGCTACGACGGGATT
B20: CAUAUUG (DNA:RNA)
RNA: B4 RNA with A25C, C26A, G28A, C29U, U31G
DNA 1: CAATCTGAATTCCGGTCTCCC
DNA 2: TGGTGGCTACGACGGGATT

target: T1, RBFOX1 RRM RbFoxmut (Fox-RRM*) (Homo sapiens, UniProt Q9NWB1 109-208, R118D;E147R;N151S;E152T); assay: EMSA; HiTS-Eq, 1 nM pool, 10 min; buffer printed only for the single-RNA assays: 10 mM Tris pH 7.5, 150 mM NaCl, 3.4 mM EDTA, 0.001% NP-40, 30 C; conditions: tags: His6 N-terminal (pET28a); label: 5' 32P
T1 sequence: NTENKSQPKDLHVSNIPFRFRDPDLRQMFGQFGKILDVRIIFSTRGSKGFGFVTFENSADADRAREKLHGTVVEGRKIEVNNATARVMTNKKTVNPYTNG
Summary of the method: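 These values rest on relative association constants, computed from read-count changes of each RNA species versus the control reaction and normalised to the cognate motif. Reads came from free RNA recovered by 8% native PAGE after purified RbFox RRM (wild type or mutant) at increasing concentrations was equilibrated for 10 min in 50 µL with 1 nM of a 5′-radiolabelled pool with 7 randomized nucleotides and DNA-annealed flanks.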

Binder	binding signal
B1	0.0887 KA relative to UGCAUGU
B2	0.143 KA relative to UGCAUGU
B3	0.097 KA relative to UGCAUGU
B4	0.0918 KA relative to UGCAUGU
B5	0.0903 KA relative to UGCAUGU
B6	0.0894 KA relative to UGCAUGU
B7	0.125 KA relative to UGCAUGU
B8	0.0724 KA relative to UGCAUGU
B9	0.101 KA relative to UGCAUGU
B10	0.137 KA relative to UGCAUGU
B11	0.101 KA relative to UGCAUGU
B12	0.109 KA relative to UGCAUGU
B13	0.0878 KA relative to UGCAUGU
B14	0.0805 KA relative to UGCAUGU
B15	0.0664 KA relative to UGCAUGU
B16	0.113 KA relative to UGCAUGU
B17	0.709 KA relative to UGCAUGU
B18	0.0498 KA relative to UGCAUGU
B19	0.0621 KA relative to UGCAUGU
B20	0.131 KA relative to UGCAUGU
